The campaign covered roughly 420,000 compounds. About 64,000 (15%) were called active. Inconclusive results, whose numbers are uncertain, are shown with a selection of clear calls. Calls come from the whole dose curve; as a rule, active = well fitted inhibition curve with a large enough effect; inconclusive = small, poorly fitted or top-dose-only effect; inactive = flat fitted curve, though single readings scatter. Potencies of inconclusive entries are left out as doubtful fits.
Test: qHTS for Inhibitors of human tyrosyl-DNA phosphodiesterase 1 (TDP1): qHTS in cells in absence of CPT; note: nearly all actives have a fitted effect of over 55% in size
Details: DT40 Tdp1-/- hTDP1 cells, no CPT, ATP luminescence, 48 h; activity change, negative = growth inhibition: at 46.2 µM (top of the series) unless noted
Summary of the method: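 Cells were dispensed at 400 per well, compounds added by pin tool, plates incubated ≥48 hr at 37 °C, then CellTiter-Glo added for 30 min at room temperature before luminescence reading. Line: DT40 Tdp1-/- complemented with hTDP1; camptothecin omitted.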
% is set by controls: 0 for no effect and ±100 for the full control effect; potency is the fitted concentration of half-maximal effect; tags give direction and shape of the fitted curve.

| SMILES | Potency | activity change, negative = growth inhibition |
| --- | --- | --- |
| Oc1ccc(Cl)cc1-c1cc(-c2ccccc2)n[nH]1 | inconclusive [inhibitor, partial curve, poor fit] |  |
| COc1ccc(OCC(=O)Nc2cc3c(cc2C(=O)O)OCCCO3)cc1 | inactive |  |
| COc1ccc(C2=NNC(=O)C2(C)Br)cc1 (configuration not stated) | inconclusive [inhibitor, single point] |  |
| CC(c1ccccc1)C(CC(=O)O)C(=O)Nc1ccc(Cl)c(Cl)c1 (configuration not stated) | inactive |  |
| O=C(Nc1cccc(-c2nc3cccnc3s2)c1)c1ccc(Cl)nc1 | inconclusive [inhibitor, single point] |  |
| COC(=O)CCCCCN1C(=O)/C(=C\c2ccncc2)SC1=S | inconclusive [inhibitor, single point] |  |
| CCOc1cc(/C=N\NC(=O)Cc2ccccc2)ccc1OCC(=O)Nc1ccc(C)c(C)c1 | active: 20.6 µM |  |
| Cc1ccc(-c2nc3ncccc3o2)cc1NC(=O)COc1ccc(C(C)C)cc1 | active: 16.4 µM |  |
| CCOC(=O)C1=CCN(S(=O)(=O)c2ccccc2Cl)C1c1cccc(F)c1 (configuration not stated) | inconclusive [inhibitor, single point] |  |
| Cc1ccc(N2CC(c3nnc(Cc4ccc(Cl)cc4)o3)CC2=O)cc1 (configuration not stated) | inconclusive [inhibitor, single point] |  |
| CC(=O)OCC1OC(n2ncc(=O)n(Cc3ccccc3)c2=O)C(OC(C)=O)C1OC(C)=O (configuration not stated) | inactive |  |
| COc1cc2c(c(OC)c1OC)C(c1ccccc1C)CC(=O)O2 (configuration not stated) | inactive |  |
| CCCCOC(=O)C(NC(=O)c1ccccc1)=C(C)C | inconclusive [inhibitor, single point] |  |
| C=CCN(c1ccc(OC)cc1)S(=O)(=O)c1ccc(Cl)c(C(=O)OCC(=O)NC2CC2)c1 |  | inconclusive: -31.5% [inhibitor] |
| CCCCNc1sc(S(=O)(=O)CC)nc1S(=O)(=O)c1ccc(C)cc1 | active: 23.1 µM |  |
| CON(C)C(=O)c1ccccc1N(C)C(=O)OC(C)(C)C | inactive |  |
| C/C(Cl)=C\COc1cc(C)nc2c(Br)cccc12 | active: 29.1 µM |  |
| C=CCOc1ccc(/C=N/NC(=O)c2cc3c(OC)cc(OC)cc3[nH]2)cc1 | active: 25.9 µM |  |
| C=COC(=O)CSc1snc(SCC(=O)OC)c1C#N | inconclusive [inhibitor, single point] |  |
| Cc1ncsc1C(=O)N1CCCC(C(=O)c2ccc3ccccc3c2)C1 (configuration not stated) | active: 20.6 µM |  |
| CCCCCn1c(SCCC(C)C)nc2c1c(=O)[nH]c(=O)n2C | inconclusive [inhibitor, single point] |  |
| CC(CC(c1ccccc1)c1ccccc1)NC(C)(C)C (configuration not stated) | inconclusive [inhibitor, single point] |  |
| Cc1[nH]n(-c2ccccc2)c(=O)c1C=NC1CCCCC1 |  | inconclusive: -31.6% [inhibitor] |
| NC(=O)CN1CCN(C(=O)Nc2ccccc2)CC1 | inactive |  |

| SMILES | Potency | activity change, negative = growth inhibition |
| --- | --- | --- |
| Cc1nn2c(-c3ccccc3)ccnc2c1Br | inconclusive [inhibitor, single point] |  |
| CCn1c(-c2cc(-c3ccc(OC(C)C)cc3)nc3ccccc23)n[nH]c1=S | inconclusive [inhibitor, single point] |  |
| CC(=O)Nc1cc(C(=O)NCc2ccccc2)ccc1Sc1ccc(C)cc1 | inconclusive [inhibitor, single point] |  |
| O=C(Nc1cc(Cl)ccc1N1CCOCC1)c1ccc2c(c1)OCO2 | inconclusive [inhibitor, single point] |  |
| COc1ccc(N2CCN(CC(O)COc3ccccc3C(C)(C)C)CC2)cc1 (configuration not stated) | inconclusive [inhibitor, single point] |  |
| CN1OC[C@@H]2CN(C(=O)c3ccco3)[C@H](c3ccc(-c4ccc(C#N)cc4)cc3)C[C@@H]21 | inconclusive [inhibitor, partial curve] |  |
| CCCCOC(=O)C1=C(C)Nc2ncnn2C1c1cc(OC)ccc1OC (configuration not stated) | inactive |  |
| Cc1cc(C)c2[nH]c(=O)c(CN(Cc3cccs3)C(=S)NCc3ccco3)cc2c1 | active: 10.3 µM |  |
| CC(C)CCC(CCN1CCCC1)c1ccc2c(c1)OCO2 (configuration not stated) | inconclusive [inhibitor, single point] |  |
| Cc1ccc(CNC(=O)C(C(C)C)N2Cc3ccccc3C2=O)cc1 (configuration not stated) | inconclusive [inhibitor, single point] |  |
| CC(=O)OCC1OC(Sc2cccc3cccnc23)C(OC(C)=O)C(OC(C)=O)C1OC(C)=O (configuration not stated) | inconclusive [inhibitor, partial curve, poor fit] |  |
| N#C/C(=C/c1ccccc1)C(=O)NCc1ccccc1 | inconclusive [inhibitor, partial curve] |  |
| Cc1ccccc1C(=O)NCCCNC(=O)c1ccccn1 | inactive |  |
| COc1ccc(N2CCN(CCNS(=O)(=O)c3ccc(C)cc3)CC2)cc1 | inconclusive [inhibitor, single point] |  |
| O=C(COc1ccccc1[N+](=O)[O-])NCc1cccnc1 | inconclusive [inhibitor, partial curve, poor fit] |  |
| CCCCn1c(N)c(N(CCC(C)C)C(=O)c2ccc(C)c(S(=O)(=O)N3CCOCC3)c2)c(=O)[nH]c1=O | inactive |  |
| O=C(NC(=S)N1CCCc2ccccc21)c1ccc(Cl)cc1 | inconclusive [inhibitor, partial curve] |  |
| Cc1cccc(C(=O)Nc2ccc(-c3nc4ccccc4s3)c(C)c2)c1 | inconclusive [inhibitor, full curve] |  |
| [O-]/[N+](=C\c1ccncc1)c1ccccc1 | inconclusive [inhibitor, single point] |  |
| Cc1ccccc1S(=O)(=O)Cc1ccc(C(=O)NCCN2CCN(Cc3ccccc3)CC2)o1 | inconclusive [inhibitor, single point] |  |
| CCN(CCCNc1ncnc2nc[nH]c12)c1cccc(C)c1 | inconclusive [inhibitor, single point] |  |
| COc1ccc(-c2cc(C(=O)NCCc3ccccc3)no2)cc1OC | inactive |  |
| CN(C(=O)CSc1cn(CC(=O)N2CCCCCC2)c2ccccc12)c1ccccc1 | active: 18.4 µM |  |
| COc1ccccc1N1CCN(/N=C/c2cc(OC)c(OC)c(OC)c2)CC1 | inconclusive [inhibitor, partial curve, poor fit] |  |

| SMILES | Potency | activity change, negative = growth inhibition |
| --- | --- | --- |
| COc1ccc(CN2C(=O)c3cccnc3C2=O)cc1S(=O)(=O)NC1CCCCC1C (configuration not stated) | inactive |  |
| O=C(NC1CCCCC1)c1ccc(Cn2c(SCc3cccc(F)c3)nc3cccnc32)cc1 | active: 20.6 µM |  |
| O=C(Cc1cc2ccccc2o1)NCc1ccc(F)cc1 | active: 23.1 µM |  |
| CC(C)N(C)c1ncnc2c1ncn2[C@H]1CN(C2CCCC2)C[C@@H](CO)O1 | inactive |  |
| CN(C)c1ccc(C=c2c3cc(O)ccc3n3c2cc(-c2ccccc2)[n+]3C)cc1 | inconclusive [inhibitor, partial curve, poor fit] |  |
| O=C(Nc1nc2ccsc2c(=O)s1)c1ccco1 | inconclusive [inhibitor, partial curve] |  |
| O=C(CCN1C(=O)S/C(=C\c2ccccc2)C1=O)NC1CCS(=O)(=O)C1 (configuration not stated) | inactive |  |
| Cc1ccc(CC(=O)N(Cc2nc(-c3ccc(C)cc3)no2)C(C)C)cc1 | active: 23.1 µM |  |
| O=C(CCc1nc(-c2ccccc2F)no1)Nc1cccc(C(F)(F)F)c1 | active: 14.6 µM |  |
| CCOC(=O)C1CCN(c2nc(C)cc(C)c2C#N)CC1 | inactive |  |
| CCc1ccc(NC(=O)CSC2=Nc3ccccc3C3=NC(CCC(=O)NCc4ccccc4OC)C(=O)N23)cc1 (configuration not stated) | inactive |  |
| Cc1ccc(S(=O)(=O)Nc2cc(C(=O)N3CCOCC3)ccc2N2CCCCC2)cc1 | inconclusive [inhibitor, single point] |  |
| O=C(Nc1ccccc1)OCCN1CCN(Cc2ccccc2)CCC1=O | inactive |  |
| Cc1cccn2c(=O)c3cc(C(=O)N4CCCC(C)C4)sc3nc12 (configuration not stated) |  | inconclusive: -36.6% [inhibitor] |
| Cc1c(C(=O)Nc2ccc(S(=O)(=O)NCC3CCCO3)cc2)cccc1[N+](=O)[O-] (configuration not stated) | inconclusive [inhibitor, single point] |  |
| CCOc1cc(/C=N/NC(=S)Nc2ccccc2C(F)(F)F)ccc1OCC(=O)N1CCOCC1 | active: 8.2 µM |  |
| CCOc1ccc(NC(=O)Cn2c(=O)n(CCc3ccccc3)c(=O)c3c4c(sc32)CN(C(C)=O)CC4)cc1 | inconclusive [inhibitor, single point] |  |
| COc1ccc(C(=O)Nc2cccc(-c3csc(C)n3)c2)cc1S(=O)(=O)N1CCCC1 | inconclusive [inhibitor, single point] |  |
| CCOc1ccc(OCC)c(NC(=O)c2cc(C)nc3c2c(C)nn3-c2cccc(Cl)c2C)c1 | inconclusive [inhibitor, single point] |  |
| C=CCNC(=S)N1CCC(Cc2ccccc2)CC1 | inconclusive [inhibitor, single point] |  |
| Cc1nn(CC(=O)NCCC2=CCCCC2)c(C)c1S(=O)(=O)N(C)C | inactive |  |
| O=C(CCCCCN1C(=O)c2cccc3cccc(c23)C1=O)NCc1cccnc1 | inconclusive [inhibitor, partial curve, poor fit] |  |
| COc1ccc(/C=N/NC(=O)c2cccnc2)c(C(=O)O)c1OC | inactive |  |
| O=C(Nc1ccn(-c2ccccc2)n1)c1ccc(S(=O)(=O)N2CCCCCC2)cc1 | inconclusive [inhibitor, single point] |  |

Reference: PubChem BioAssay AID686978 (National Center for Advancing Translational Sciences (NCATS), 2013)
